Test [1] has as its system HSkMC (human skeletal muscle cells). Briefly: cytotoxicity call (relative viability < 0.9). The note with it: 10 µM.
In test [2] the test system is HepG2. Briefly: cytotoxicity call (relative viability < 0.9). The note with it: 10 µM.
The test system of test [3] is S. aureus RN4220. Briefly: growth inhibition call (relative growth <= 0.2). As to conditions: 50 µM.

The other results are listed elsewhere or left out.

As to `CC(C)NC(=O)Nc1ccc2c(c1)C(=O)N([C@@H](C)CO)C[C@@H](C)[C@@H](CN(C)Cc1ccc(-c3ccccc3)cc1)O2`, the cytotoxicity call in test [1] was “inactive”. In test [2], the cytotoxicity call is “active”. In addition, the growth inhibition call in test [3] was “inactive”.
With `C[C@H](CO)N1C[C@H](C)[C@H](CN(C)C(=O)C2CCC2)Oc2cc(C#Cc3ccncc3)ccc2S1(=O)=O`, in test [1], the cytotoxicity call was “inactive”. Further, the cytotoxicity call in test [2] was “active”. In addition, the growth inhibition call in test [3] was “inactive”.
With `CC(=O)N[C@H]1CC[C@@H](CCNC(=O)C2CC2)O[C@H]1CO`, the cytotoxicity call in test [1] and in test [2] was “inactive” each time. In addition, the growth inhibition call in test [3] is “inactive”.
As for `CN(C)CCCNC(=O)C[C@@H]1CC[C@@H](NS(=O)(=O)c2ccccc2)[C@@H](CO)O1`, the cytotoxicity call in test [1] and in test [2] was “inactive” in each case. Also, the growth inhibition call in test [3] was “inactive”.
With `C[C@@H]1CCCCO[C@@H](CN(C)C(=O)Nc2ccccc2)[C@H](C)CN([C@@H](C)CO)C(=O)c2cc(NC(=O)C3CCCCC3)ccc2O1`, the cytotoxicity call in test [1] and in test [2] was “inactive” throughout. In addition, the growth inhibition call in test [3] was “inactive”.
With `CNC(=O)CN1CCOC[C@]2(CCCN(C(=O)c3ccn(C)n3)C2)C1`, the cytotoxicity call in test [1] and in test [2] was “inactive” each time. Also, in test [3], the growth inhibition call is “inactive”.
For `C[C@@H]1CN([C@H](C)CO)C(=O)c2cc(NC(=O)C3CCCCC3)ccc2O[C@H]1CN(C)C(=O)Nc1ccc(C(F)(F)F)cc1`, the cytotoxicity call in test [1] and in test [2] was “inactive” each time. For the same compound, the growth inhibition call in test [3] was “inactive”.
Regarding `C[C@@H]1CN([C@@H](C)CO)C(=O)c2cc(NC(=O)Nc3cccc4ccccc34)ccc2O[C@@H](C)CCCCO[C@@H]1CN(C)C`, the cytotoxicity call in test [1] and in test [2] was “inactive” throughout. For the same compound, the growth inhibition call in test [3] was “inactive”.
As for `COC(=O)[C@H](Cc1ccc(-n2cc(C(=O)NO)nn2)cc1)N1C[C@](C)(OC)O[C@@H](Cc2ccccc2)[C@H]1/C=C/C1CC1`, the cytotoxicity call in test [1] and in test [2] was “inactive” in each case. In addition, the growth inhibition call in test [3] was “inactive”.
Consider `CC(C)N1CC[C@@H](CN(C)Cc2ccc(Cl)cc2)Oc2c(NC(=O)c3ccncc3)cccc2C1=O`, for which the cytotoxicity call in test [1] and in test [2] was “inactive” in each case. Also, in test [3], the growth inhibition call is “inactive”.

(Values after the antibiotic and cytotoxicity screens of Wong et al. (2023).)
